From patent publication US20260167677A1, “ANTI-ADAM10 ANTIBODIES AND USES IN TREATMENT OF CANCER” (Memorial Sloan Kettering Cancer Center, priority 2022, published 2026)

Columns and labels:
[1] = target: T1, ADAM10 D+C (b) (Bos taurus, UniProt Q10741); assay: Pull-down with protein A Sepharose bead-bound mAb; format: binding, bovine
T1 construct: the D+C domains (455-646) were cloned, expressed and purified from HEK293 cells; Fc-tag (C, cleaved yes); made in house; host or cells: HEK293 cells
T1 sequence (Q10741 455-646): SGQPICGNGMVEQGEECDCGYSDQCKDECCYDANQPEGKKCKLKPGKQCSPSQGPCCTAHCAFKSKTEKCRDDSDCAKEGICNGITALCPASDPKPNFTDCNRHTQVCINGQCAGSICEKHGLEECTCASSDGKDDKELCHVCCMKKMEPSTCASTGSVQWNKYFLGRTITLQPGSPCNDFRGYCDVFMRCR
Text: (§1) Panels A-C show characterization of the fully human 1H5 Fab. […] [Lane 1: Low molecular weight standards (Bio-Rad). Lane 2: bead bound murine 8C7 immunoglobulin G (IgG)+ADAM10 D+C. […] Lane 4: bead bound ADAM10 D+C without any pre-bound mAb. Lane 5: ADAM10 D-f-C input]

[2] = target: T2, human ADAM19 D+C (Homo sapiens, UniProt Q9H013); assay: ELISA, 1H5 IgG binding to human ADAM19 D+C; conditions: FIG. 2 Panel E
T2 construct: The human ADAM19 D+C construct (438-646); Fc-tag (C); made in house; host or cells: HEK293 cells (same mammalian expression system)
T2 sequence (Q9H013 438-646): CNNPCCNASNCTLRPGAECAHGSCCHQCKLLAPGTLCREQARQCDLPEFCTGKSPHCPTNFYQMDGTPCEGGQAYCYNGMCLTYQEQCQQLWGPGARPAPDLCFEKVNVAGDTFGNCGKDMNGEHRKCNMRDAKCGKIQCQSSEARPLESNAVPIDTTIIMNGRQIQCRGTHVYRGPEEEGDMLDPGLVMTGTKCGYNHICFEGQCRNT
Text: as §1

[3] = test system: COLO205; assay: Alamar blue cell viability assay, COLO205; format: cell-based, human; conditions: COLO205, 20 μg/ml
Procedure: (§2) For the Alamar blue cell viability assays, the cells were harvested in the log phase of growth (after 3 days of culturing). The cell count was determined and was adjusted to 5×10^4 cells/ml. […] The cells were allowed to grow for an additional 38 hours. Cells not treated with 1H5 were used as a control. Alamar Blue (10% of the well volume) was added aseptically. Cultures containing Alamar Blue were incubated for 6 hours, and cell proliferation was measured spectrophotometrically by absorbance at 570 and 600 nm. Cell viability was calculated using the following formula:
(§3) O1=molar extinction coefficient (E) of oxidized alamarBlue® (Blue) at 570 nm, O2=E of oxidized alamarBlue® at 600 nm, A1=absorbance of test wells at 570 nm, A2=absorbance of test wells at 600 nm, P1=absorbance of positive growth control well (cells plus AamarBlue® but no test agent) at 570 nm, P2=absorbance of positive growth control well (cells plus AlamarBlue® but no test agent) at 600 nm (O'Brien et al., 2000).

[4] = target: T3, human (h) ADAM10 D+C (Homo sapiens, UniProt O14672); assay: ELISA, 1H5 IgG binding to immobilized human ADAM10 D+C; conditions: FIG. 2 Panel E
T3 construct: human ADAM10 D+C (455-650); Fc-tag (human); made in house; host or cells: baculovirus-infected Hi5 insect cells
T3 sequence (O14672 455-650): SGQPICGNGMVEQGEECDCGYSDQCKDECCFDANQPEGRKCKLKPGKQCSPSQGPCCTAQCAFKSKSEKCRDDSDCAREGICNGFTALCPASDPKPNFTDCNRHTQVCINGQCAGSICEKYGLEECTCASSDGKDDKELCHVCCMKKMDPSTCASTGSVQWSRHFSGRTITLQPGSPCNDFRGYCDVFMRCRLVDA
Text: as §1

[5] = test system: HT-29; assay: Alamar blue cell viability assay, HT-29; format: cell-based
Procedure: as §2, §3

[6] = target: T4, human ADAM10 ECD (Homo sapiens, UniProt O14672); assay: Fluorogenic peptide cleavage assay, human ADAM10 ECD; format: biochemical; conditions: 1:1 molar ratio
T4 construct: Human ADAM10 ECD (20-650); Fc-tag (human); made in house; host or cells: baculovirus-infected Hi5 insect cells
T4 sequence (O14672 20-650): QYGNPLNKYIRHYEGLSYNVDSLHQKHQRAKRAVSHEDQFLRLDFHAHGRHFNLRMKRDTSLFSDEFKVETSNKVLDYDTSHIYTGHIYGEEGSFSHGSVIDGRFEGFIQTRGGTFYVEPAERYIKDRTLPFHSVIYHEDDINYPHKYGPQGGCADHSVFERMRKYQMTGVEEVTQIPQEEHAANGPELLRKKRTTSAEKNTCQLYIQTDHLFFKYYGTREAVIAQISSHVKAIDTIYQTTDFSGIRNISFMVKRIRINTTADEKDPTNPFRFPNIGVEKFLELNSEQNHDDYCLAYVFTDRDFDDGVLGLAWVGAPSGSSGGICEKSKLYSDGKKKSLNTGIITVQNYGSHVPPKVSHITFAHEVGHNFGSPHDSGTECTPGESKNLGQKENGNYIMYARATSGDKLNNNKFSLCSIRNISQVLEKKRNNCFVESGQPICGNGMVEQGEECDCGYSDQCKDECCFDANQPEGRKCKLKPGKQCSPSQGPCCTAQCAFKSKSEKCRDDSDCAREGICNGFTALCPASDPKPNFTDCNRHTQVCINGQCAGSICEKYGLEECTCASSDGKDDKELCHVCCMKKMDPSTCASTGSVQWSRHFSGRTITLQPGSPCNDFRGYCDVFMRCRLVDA
Procedure: ADAM10 ECD-antibody or ADAM10 ECD-inhibitor (broad spectrum metalloprotease inhibitor GM6001) complexes were formed at a 1:1 molar ratio prior to the assay. The assay was carried out by mixing 50 μM of a fluorogenic peptide substrate Mca-PLAQAV-Dpa with ADAM10-antibody/inhibitor complexes at 37° C., and monitoring the progress of the enzymatic reaction by fluorescence emission (excitation 320 nm and emission 405 nm) over a time course of 1 hour using a SpectraMax M5. ADAM10 ECD (bovine or human) alone was used as positive control. The substrate peptide was derived from TNFalpha and contains a highly fluorescent 7-methoxycoumarin group and a quencher group, 2,4-dinitrophenyl. ADAM10 cleaves the amide bond between the fluorescent and the quencher group causing an increase in fluorescence (Seegar et al., 2017; Black & Becherer, 1998).

[7] = test system: U-87MG; assay: Alamar blue cell viability assay, U-87MG; format: cell-based; conditions: 20 μg/ml
Procedure: as §2, §3

B1: 1H5: fully human anti-ADAM10 antibody clone; heavy chain SEQ ID NO: 14, light chain SEQ ID NO: 15 (antibody)
heavy: QVQLVESGGGLVKPGGSLRLSCAASGFTFSDYYMSWIRQAPGKGLEWVSYISSSGSTIYYADSVKGRFTISRDNAKNSLYLQMNSLRAEDTAVYYCARDFYDSKIFDYWGQGTLVTVSS[human IgG1 constant region left out]
light: DIQMTQSPSSLSASVGDRVTITCRASQSISSYLNWYQQKPGKAPKLLIYAASSLQSGVPSRFSGSGSGTDFTLTISSLQPEDVGVYYCMEGLKTPFTFGPGTKLEIKRTVAAPSVFIFPPSDEQLKSGTASVVCLLNNFYPREAKVQWKVDNALQSGNSQESVTEQDSKDSTYSLSSTLTLSKADYEKHKVYACEVTHQGLSSPVTKSFNRGEC
binding of ADAM10 D+C to bead-bound mAb [1]: binds
binding to human ADAM19 D+C [2]: but not to
inhibition [3]: 60-70%
binding to immobilized human ADAM10 D+C [4]: binds specifically
growth of colon cancer cell line [5]: inhibited growth
ADAM10 enzymatic activity [6]: promoted the ADAM10 enzymatic activity
inhibition [7]: 60-70%
